Drawing on patent US20130347134A1, “TRANSGENIC VON WILLEBRAND FACTOR ANIMALS AND USES THEREOF” (priority 2012, published 2013), this text covers translocation velocity of human platelets and tail bleeding time of homozygous VWF-HA1 mice for two substances.

In test [1] the target is human platelet glycoprotein Ib alpha (GPIb α) on human platelets (human) (UniProt P07359). As to the kind of experiment: translocation of human platelets on immobilized plasma VWF in flow.
For test [2], the target named is murine platelet glycoprotein Ib alpha (GPIb α) on mouse platelets (mouse) (UniProt O35930). As to the kind of experiment: cell-based or functional assay.
Chain of UniProt O35930 (O35930 17-734): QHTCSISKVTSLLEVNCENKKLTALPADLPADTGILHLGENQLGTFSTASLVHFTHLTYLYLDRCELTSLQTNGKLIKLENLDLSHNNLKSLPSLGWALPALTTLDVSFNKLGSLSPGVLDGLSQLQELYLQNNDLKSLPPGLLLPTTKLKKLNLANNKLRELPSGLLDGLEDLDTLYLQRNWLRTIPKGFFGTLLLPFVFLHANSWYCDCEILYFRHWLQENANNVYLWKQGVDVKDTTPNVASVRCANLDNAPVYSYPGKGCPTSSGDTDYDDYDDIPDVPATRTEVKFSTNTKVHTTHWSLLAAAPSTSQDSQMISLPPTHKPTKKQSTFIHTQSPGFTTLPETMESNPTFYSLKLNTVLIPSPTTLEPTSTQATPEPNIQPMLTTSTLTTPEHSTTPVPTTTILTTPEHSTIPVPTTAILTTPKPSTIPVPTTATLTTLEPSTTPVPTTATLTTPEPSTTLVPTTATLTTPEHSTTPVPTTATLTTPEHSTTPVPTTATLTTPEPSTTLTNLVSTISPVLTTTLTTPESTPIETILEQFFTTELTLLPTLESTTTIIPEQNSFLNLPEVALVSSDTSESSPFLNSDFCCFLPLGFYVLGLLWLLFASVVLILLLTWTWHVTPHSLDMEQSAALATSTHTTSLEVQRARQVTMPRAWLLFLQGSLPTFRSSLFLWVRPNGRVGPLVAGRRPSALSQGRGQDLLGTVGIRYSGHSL

In test [1], “human plasma von Willebrand factor (VWF) (a stretch of the chain, sequence left out) (ligand)” displayed a translocation velocity of human platelets of 3.2 µm/sec.

For the substance “mouse plasma VWF containing the majority of the human A1 domain (amino acids 1240P through 1481G of human VWF) (a stretch of the chain, sequence left out) (ligand)”, the tail bleeding time of homozygous VWF-HA1 mice in test [2] is above 10 min.
